{"source": "PubChem BioAssay AID485281", "about": "(National Center for Advancing Translational Sciences (NCATS), 2010)", "note": "The campaign covered roughly 350,000 compounds. About 260 (0.074%) were called active. Inconclusive results, whose numbers are uncertain, are shown with a selection of clear calls. The call rests on the fitted dose curve; in most records, active means well fitted inhibition curve with a large enough effect; inconclusive means small, poorly fitted or top-dose-only effect; inactive means no such curve, though single readings can be large or run the other way. Potencies of inconclusive entries are doubtful fits and often do not repeat. On the % scale 0 is the no-effect control and ±100 the full control effect; potency means the concentration at half of the fitted maximal effect; tags describe the fitted curve by direction and shape.", "data": [{"biological_target": "Ferritin light chain (Equus caballus) (UniProt P02791)", "sequence (P02791 whole entry, looked up)": "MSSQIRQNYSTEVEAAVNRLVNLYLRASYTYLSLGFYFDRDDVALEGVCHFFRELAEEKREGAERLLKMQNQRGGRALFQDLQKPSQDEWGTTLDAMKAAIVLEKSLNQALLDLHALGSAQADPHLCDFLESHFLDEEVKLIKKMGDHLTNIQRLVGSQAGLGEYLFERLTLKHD", "assay": "qHTS Assay for Identification of Novel General Anesthetics; further: nearly all actives have a fitted effect of over 20% in size", "conditions": "apoferritin/1-aminoanthracene competitive binding, fluorescence; activity change, negative = displacement: at 77.5 µM (top of the series)", "in_short": "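Steps: apoferritin (10 uM) was premixed with half-saturated 1-AMA in PBS, compounds were pin-transferred, plates stood 10 min at room temperature, fluorescence was read at 380/535 nm, and curves were fitted with a Hill equation.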", "values": [{"smiles": "N#CC1=C(N)NC(SCc2ccccc2)=C(C#N)C12CCCCC2", "Potency": "inconclusive: 22.4 µM [inhibitor, partial curve]"}, {"smiles": "Cc1ccc([N+](=O)[O-])cc1N/C=C/C(=O)c1ccco1", "Potency": "inconclusive: 15.8 µM [inhibitor, partial curve]"}, {"smiles": "N#C/C(=C(/N)Sc1ccc(N)cc1)c1ccccc1C(F)(F)F", "Potency": "inconclusive: 31.6 µM [inhibitor, single point]"}, {"smiles": "O=C(CCSCc1ccccc1F)NCc1cccs1", "Potency": "inconclusive: 25.1 µM [inhibitor, partial curve]"}, {"smiles": "N#CC(C#N)=Cc1cc2ccccc2nc1N1CCCCC1", "Potency": "inconclusive: 28.2 µM [inhibitor, partial curve]"}, {"smiles": "O=C(O)Cc1c(Cl)ccc(Cl)c1Cl", "Potency": "inactive"}, {"smiles": "N#Cc1nc(COc2ccccc2F)oc1NCc1ccc(F)cc1", "Potency": "inconclusive: 31.6 µM [inhibitor, partial curve]"}, {"smiles": "Cc1ccc(NC(=O)CN2C(=S)NC(C)(C)CC2C)cc1Cl", "note": "(stereo not given)", "Potency": "inconclusive: 25.1 µM [inhibitor, partial curve]"}, {"smiles": "CC(=O)c1ccc(OCC(=O)NC(=O)NC2CCCCC2)cc1", "Potency": "inconclusive: 25.1 µM [inhibitor, partial curve]"}, {"smiles": "COc1cc2nc(N3CCN(C(=O)C4COc5ccccc5O4)CC3)nc(N)c2cc1OC", "note": "(stereo not given)", "Potency": "inconclusive: 12.6 µM [inhibitor, partial curve]"}, {"smiles": "C/C(Cl)=C\\Cn1c(O)c(N=O)c2ccccc21", "Potency": "inconclusive: 35.5 µM [inhibitor, partial curve]"}, {"smiles": "COc1cc(C=O)ccc1OCCOCCOc1ccc(Cl)cc1", "Potency": "inconclusive: 31.6 µM [inhibitor, partial curve]"}, {"smiles": "CC(C)n1c(NCc2cc(Cl)ccc2O)nc2ccccc21", "Potency": "inconclusive: 39.8 µM [inhibitor, partial curve]"}, {"smiles": "Cc1ccccc1NC(=O)c1sc(Cl)nc1-c1ccccc1", "Potency": "inconclusive: 20 µM [inhibitor, partial curve]"}, {"smiles": "COc1ccc(C2=NS(=O)(=O)N(C)C(C(=O)Nc3ccc4c(c3)OCO4)=C2)cc1OC", "Potency": "inconclusive: 28.2 µM [inhibitor, partial curve]"}, {"smiles": "Cc1ccccc1Nc1nc2ccccc2s1", "Potency": "inconclusive: 14.1 µM [inhibitor, partial curve]"}, {"smiles": "Cc1ccc2[nH]c(=O)c(CN(Cc3cccs3)C(=S)NCC3CCCO3)cc2c1", "note": "(stereo not given)", "Potency": "inconclusive: 8.91 µM [inhibitor, partial curve]"}, {"smiles": "N=c1c2c3c(sc2ncn1CCCO)CCCC3", "Potency": "inconclusive: 25.1 µM [inhibitor, partial curve]"}, {"smiles": "CC(C)CSc1nsc(N)n1", "Potency": "inconclusive: 39.8 µM [inhibitor, single point]"}, {"smiles": "CC(=O)c1cccc(NC(=O)c2csc3c2CCCCC3)c1", "Potency": "inconclusive: 14.1 µM [inhibitor, partial curve]"}, {"smiles": "COc1ccc(F)cc1S(=O)(=O)N1CCCC(C)C1", "note": "(stereo not given)", "Potency": "inconclusive: 39.8 µM [inhibitor, partial curve]"}, {"smiles": "COCc1cc(=O)n2[nH]c(-c3ccc(C)cc3)cc2n1", "Potency": "inactive"}, {"smiles": "Cc1cccc(NC(=S)NCc2ccc3c(c2)cc(C)n3C)c1C", "Potency": "inconclusive: 35.5 µM [inhibitor, partial curve]"}, {"smiles": "Cc1c(CCC(=O)NCCCCCC(=O)O)c(=O)oc2cc3occ(-c4ccccc4)c3cc12", "Potency": "inactive"}, {"smiles": "O=C(CN1CCCCC1)Nc1ccc(S(=O)(=O)N2CCCCCC2)cc1", "Potency": "inconclusive: 39.8 µM [inhibitor, partial curve]"}, {"smiles": "CCCCn1c(-c2cccs2)nc2nc3ccccc3nc21", "Potency": "inactive"}, {"smiles": "CCC(C(=O)N(C)Cc1ccccc1)n1nc(C)c2sc3ccccc3c2c1=O", "note": "(stereo not given)", "Potency": "inactive"}, {"smiles": "NC(N)=N/N=C/c1ccc(OCc2ccccc2)cc1", "Potency": "inconclusive: 35.5 µM [inhibitor, partial curve]"}, {"smiles": "CC1CCN(c2ccc(C(=O)NCc3ccco3)cc2[N+](=O)[O-])CC1", "Potency": "inconclusive: 39.8 µM [inhibitor, partial curve]"}, {"smiles": "Cc1ccc(CNC(=O)c2cc(Sc3ccc(F)cc3F)nc3ccccc23)cc1", "Potency": "inactive"}, {"smiles": "COc1ccc(CNC(=O)CCc2c(C)nn(-c3ccc(N4CCOCC4)nn3)c2C)cc1", "Potency": "inactive"}, {"smiles": "O=C(CNc1ccccc1Cl)c1ccc(Br)cc1", "Potency": "inconclusive: 35.5 µM [inhibitor, partial curve]"}, {"smiles": "COC(=O)C1=C(C)N(Cc2ccc(C)cc2)C(=O)/C1=C\\c1cc(OC)c(OC)c(OC)c1", "Potency": "inactive"}, {"smiles": "Oc1ccc(CN2CCN(c3ccccc3)CC2)c2cccnc12", "Potency": "inactive"}, {"smiles": "Cc1ccc2c(NC(=S)NC(=O)c3ccccc3)cccc2n1", "Potency": "inconclusive: 39.8 µM [inhibitor, single point]"}, {"smiles": "COc1ccc(S(=O)(=O)N2CCOC2CNC(=O)C(=O)NCc2ccc(F)cc2)cc1", "note": "(stereo not given)", "Potency": "inconclusive: 17.8 µM [inhibitor, partial curve]"}, {"smiles": "COc1cccc(OC)c1OCCCc1c(C)n[nH]c1C", "Potency": "inactive"}, {"smiles": "CC(=O)N(Cc1cccnc1)c1nc2cc(C)cc(C)c2s1", "Potency": "inconclusive: 39.8 µM [inhibitor, partial curve]"}, {"smiles": "COc1cccc(N(C(=O)Cc2cccs2)C(C(=O)NC2CCCC2)c2ccncc2)c1", "note": "(stereo not given)", "Potency": "inactive"}, {"smiles": "Cc1ccc2c(c1)C(=O)CC(c1ccc3c(c1)OCCO3)O2", "note": "(stereo not given)", "Potency": "inconclusive: 22.4 µM [inhibitor, single point]"}, {"smiles": "Cc1cc(NC(=O)c2ccco2)cc(-c2nc3cc(Cl)ccc3o2)c1O", "Potency": "inactive"}, {"smiles": "CCc1nc(N2CCN(C(=O)c3ccco3)CC2)c(C#N)c2c1COC(C)(C)C2", "Potency": "inactive"}, {"smiles": "CC(=O)N1CCc2c(sc3c2c(=O)n(-c2ccccc2)c(=O)n3Cc2cccc(C(F)(F)F)c2)C1", "Potency": "inconclusive: 10 µM [inhibitor, partial curve]"}, {"smiles": "O=C(NCC12CC3CC(CC(C3)C1)C2)c1nc2ncccn2n1", "Potency": "inactive"}, {"smiles": "O=C(O)Cc1ccc2sc(-c3ccccc3)nc2c1", "Potency": "inactive"}, {"smiles": "CC(C)(C)c1ccc(O)c(/C=N\\O)c1", "Potency": "inconclusive: 31.6 µM [inhibitor, partial curve]"}, {"smiles": "Cc1sc2ncnc(Sc3nnnn3-c3ccccc3)c2c1C", "Potency": "inconclusive: 22.4 µM [inhibitor, partial curve]"}, {"smiles": "CCc1nn(CC(=O)NCCCN2CCN(C)CC2)c(=O)c2cc3occc3n12", "Potency": "inconclusive: 31.6 µM [inhibitor, partial curve]"}, {"smiles": "Cn1cccc1C(=O)NC(=O)COC(=O)CNC(=O)c1ccc(Cl)cc1Cl", "Potency": "inconclusive: 20 µM [inhibitor, partial curve]"}, {"smiles": "Cc1nc(NCC2CCCO2)c2nnn(Cc3ccccc3)c2n1", "note": "(stereo not given)", "Potency": "inconclusive: 28.2 µM [inhibitor, partial curve]"}, {"smiles": "O=C(c1ccc(Cl)cc1)N1CCCC(c2ccccc2)=N1", "Potency": "inconclusive: 39.8 µM [inhibitor, single point]"}, {"smiles": "Cn1c(=O)n(C)c2cc(N3CCOCC3)c(NS(=O)(=O)c3ccc(Br)cc3)cc21", "Potency": "inactive"}, {"smiles": "c1ccc2c(c1)CCN2CCN1CCc2ccccc21", "Potency": "inconclusive: 15.8 µM [inhibitor, partial curve]"}, {"smiles": "Cc1cccc(N2CCN(C(=O)CCCn3ncn4c(cc5occc54)c3=O)CC2)c1C", "Potency": "inconclusive: 25.1 µM [inhibitor, partial curve]"}, {"smiles": "O=C(NCC(c1cccnc1)N1CCc2ccccc2C1)C(=O)Nc1cccc(Cl)c1", "note": "(stereo not given)", "Potency": "inactive"}, {"smiles": "CO[C@@H]1COC(=O)C/C=C\\[C@@H](C)COC(=O)[C@H](COCc2ccccc2)NC(=O)C/C=C\\[C@H]1C", "activity change, negative = displacement": "inactive: -14.2% [at 15.3 µM]"}, {"smiles": "CCC(C)c1ccc(S(=O)(=O)N2CCN(C(=O)COc3ccc4c(C)cc(=O)oc4c3)CC2)cc1", "note": "(stereo not given)", "Potency": "inconclusive: 11.2 µM [inhibitor, single point]"}, {"smiles": "N#Cc1ccccc1NC(=O)c1cccc(COc2ccc(Cl)cc2Cl)c1", "Potency": "inconclusive: 5.62 µM [inhibitor, full curve]"}, {"smiles": "COc1cc2c(cc1OC)CN(c1ccc([N+](=O)[O-])cc1C#N)CC2", "Potency": "inconclusive: 56.2 µM [inhibitor, single point]"}, {"smiles": "N#Cc1ccc(CSc2nc(N)cc(N)n2)cc1", "Potency": "inconclusive: 56.2 µM [inhibitor, single point]"}, {"smiles": "Cc1ccccc1C(=O)c1cccn1CC(=O)NCc1ccc2c(c1)OCO2", "Potency": "inconclusive: 25.1 µM [inhibitor, partial curve]"}, {"smiles": "CCC(C(=O)NCCc1ccc(SC)cc1)n1nc(C)c2c(C)n(-c3ccc(C)cc3)nc2c1=O", "note": "(stereo not given)", "Potency": "inconclusive: 15.8 µM [inhibitor, partial curve]"}, {"smiles": "CC(C)(C)c1cc(NCCCn2ccnc2)n2ncc(-c3ccc(Cl)cc3)c2n1", "Potency": "inactive"}, {"smiles": "Cc1cc(C)c2c(c1)/C(=N/NS(=O)(=O)c1ccccc1)CCC2", "Potency": "inconclusive: 15.8 µM [inhibitor, partial curve]"}, {"smiles": "CC(=O)c1cc(-c2ccc(F)cc2)n(CCC(=O)NC2CCCCC2)c1C", "Potency": "inactive"}, {"smiles": "CC(C)CNc1cc(NC2CCCCC2)c2c3c(onc13)-c1ccccc1C2=O", "Potency": "inconclusive: 31.6 µM [inhibitor, partial curve]"}, {"smiles": "CCCc1nc(SCC(=O)N2CCCc3ccccc32)c2c(=O)n(C)c(=O)n(C)c2n1", "Potency": "inconclusive: 6.31 µM [inhibitor, single point]"}, {"smiles": "Cc1ccc(Cl)cc1N1CCN(C(=O)c2cn(C)c3ccc(S(=O)(=O)N4CCCCC4)cc3c2=O)CC1", "Potency": "inactive"}, {"smiles": "CCCNC(=O)OC[C@@H]1O[C@H](CCO/N=C(\\C)CCN2CCc3nc(-c4ccccc4)c(-c4ccccc4)cc3C2)C=C[C@@H]1Oc1ccc(OC)cc1", "activity change, negative = displacement": "inactive: -10.6% [at 15.3 µM]"}, {"smiles": "COc1ccccc1C1C(C(C)=O)=C(C)N=c2s/c(=C\\c3cc(OC)c(OC)c(OC)c3)c(=O)n21", "note": "(stereo not given)", "Potency": "inactive"}]}]}
